Experimental data published in article PMC12089419.
These are yes or no findings as the source states them, for the method shown. In cells and extracts the contact can be indirect. Some results given as binding are weak or reduced against the parent protein; the word gives no strength. For some assays here: Tags and fused reporters may be left off the sequences shown.

Chains of the proteins cited; added tags and fusions are not shown.
UniProt Q93009: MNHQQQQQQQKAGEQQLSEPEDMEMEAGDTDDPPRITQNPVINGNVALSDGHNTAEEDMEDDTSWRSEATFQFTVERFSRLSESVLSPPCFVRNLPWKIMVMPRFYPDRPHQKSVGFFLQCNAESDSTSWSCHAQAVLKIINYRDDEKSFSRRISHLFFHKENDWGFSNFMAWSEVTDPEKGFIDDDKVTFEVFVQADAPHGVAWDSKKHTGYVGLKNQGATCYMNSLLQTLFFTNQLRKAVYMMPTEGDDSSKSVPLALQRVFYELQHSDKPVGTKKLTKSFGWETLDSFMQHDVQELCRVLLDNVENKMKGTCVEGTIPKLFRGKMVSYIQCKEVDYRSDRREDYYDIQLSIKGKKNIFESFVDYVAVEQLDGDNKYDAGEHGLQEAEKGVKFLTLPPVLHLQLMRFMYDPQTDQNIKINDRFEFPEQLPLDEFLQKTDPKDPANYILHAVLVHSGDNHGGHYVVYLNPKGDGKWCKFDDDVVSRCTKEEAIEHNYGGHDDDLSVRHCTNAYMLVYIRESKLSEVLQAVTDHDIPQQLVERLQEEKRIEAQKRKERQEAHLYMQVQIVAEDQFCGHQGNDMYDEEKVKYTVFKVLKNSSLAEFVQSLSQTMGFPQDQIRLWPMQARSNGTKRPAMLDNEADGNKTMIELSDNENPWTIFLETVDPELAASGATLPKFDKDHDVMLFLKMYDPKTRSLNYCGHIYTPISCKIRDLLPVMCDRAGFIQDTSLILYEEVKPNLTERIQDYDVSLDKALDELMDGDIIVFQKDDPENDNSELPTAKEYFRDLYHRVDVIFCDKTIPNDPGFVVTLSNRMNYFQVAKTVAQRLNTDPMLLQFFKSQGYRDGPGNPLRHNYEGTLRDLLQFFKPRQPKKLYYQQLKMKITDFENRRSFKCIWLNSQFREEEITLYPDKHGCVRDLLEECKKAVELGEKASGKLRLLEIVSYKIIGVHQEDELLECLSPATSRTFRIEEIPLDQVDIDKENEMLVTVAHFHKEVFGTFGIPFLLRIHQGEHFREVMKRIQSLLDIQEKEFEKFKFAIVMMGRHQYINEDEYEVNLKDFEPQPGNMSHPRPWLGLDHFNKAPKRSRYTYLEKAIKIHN
UniProt Q92793: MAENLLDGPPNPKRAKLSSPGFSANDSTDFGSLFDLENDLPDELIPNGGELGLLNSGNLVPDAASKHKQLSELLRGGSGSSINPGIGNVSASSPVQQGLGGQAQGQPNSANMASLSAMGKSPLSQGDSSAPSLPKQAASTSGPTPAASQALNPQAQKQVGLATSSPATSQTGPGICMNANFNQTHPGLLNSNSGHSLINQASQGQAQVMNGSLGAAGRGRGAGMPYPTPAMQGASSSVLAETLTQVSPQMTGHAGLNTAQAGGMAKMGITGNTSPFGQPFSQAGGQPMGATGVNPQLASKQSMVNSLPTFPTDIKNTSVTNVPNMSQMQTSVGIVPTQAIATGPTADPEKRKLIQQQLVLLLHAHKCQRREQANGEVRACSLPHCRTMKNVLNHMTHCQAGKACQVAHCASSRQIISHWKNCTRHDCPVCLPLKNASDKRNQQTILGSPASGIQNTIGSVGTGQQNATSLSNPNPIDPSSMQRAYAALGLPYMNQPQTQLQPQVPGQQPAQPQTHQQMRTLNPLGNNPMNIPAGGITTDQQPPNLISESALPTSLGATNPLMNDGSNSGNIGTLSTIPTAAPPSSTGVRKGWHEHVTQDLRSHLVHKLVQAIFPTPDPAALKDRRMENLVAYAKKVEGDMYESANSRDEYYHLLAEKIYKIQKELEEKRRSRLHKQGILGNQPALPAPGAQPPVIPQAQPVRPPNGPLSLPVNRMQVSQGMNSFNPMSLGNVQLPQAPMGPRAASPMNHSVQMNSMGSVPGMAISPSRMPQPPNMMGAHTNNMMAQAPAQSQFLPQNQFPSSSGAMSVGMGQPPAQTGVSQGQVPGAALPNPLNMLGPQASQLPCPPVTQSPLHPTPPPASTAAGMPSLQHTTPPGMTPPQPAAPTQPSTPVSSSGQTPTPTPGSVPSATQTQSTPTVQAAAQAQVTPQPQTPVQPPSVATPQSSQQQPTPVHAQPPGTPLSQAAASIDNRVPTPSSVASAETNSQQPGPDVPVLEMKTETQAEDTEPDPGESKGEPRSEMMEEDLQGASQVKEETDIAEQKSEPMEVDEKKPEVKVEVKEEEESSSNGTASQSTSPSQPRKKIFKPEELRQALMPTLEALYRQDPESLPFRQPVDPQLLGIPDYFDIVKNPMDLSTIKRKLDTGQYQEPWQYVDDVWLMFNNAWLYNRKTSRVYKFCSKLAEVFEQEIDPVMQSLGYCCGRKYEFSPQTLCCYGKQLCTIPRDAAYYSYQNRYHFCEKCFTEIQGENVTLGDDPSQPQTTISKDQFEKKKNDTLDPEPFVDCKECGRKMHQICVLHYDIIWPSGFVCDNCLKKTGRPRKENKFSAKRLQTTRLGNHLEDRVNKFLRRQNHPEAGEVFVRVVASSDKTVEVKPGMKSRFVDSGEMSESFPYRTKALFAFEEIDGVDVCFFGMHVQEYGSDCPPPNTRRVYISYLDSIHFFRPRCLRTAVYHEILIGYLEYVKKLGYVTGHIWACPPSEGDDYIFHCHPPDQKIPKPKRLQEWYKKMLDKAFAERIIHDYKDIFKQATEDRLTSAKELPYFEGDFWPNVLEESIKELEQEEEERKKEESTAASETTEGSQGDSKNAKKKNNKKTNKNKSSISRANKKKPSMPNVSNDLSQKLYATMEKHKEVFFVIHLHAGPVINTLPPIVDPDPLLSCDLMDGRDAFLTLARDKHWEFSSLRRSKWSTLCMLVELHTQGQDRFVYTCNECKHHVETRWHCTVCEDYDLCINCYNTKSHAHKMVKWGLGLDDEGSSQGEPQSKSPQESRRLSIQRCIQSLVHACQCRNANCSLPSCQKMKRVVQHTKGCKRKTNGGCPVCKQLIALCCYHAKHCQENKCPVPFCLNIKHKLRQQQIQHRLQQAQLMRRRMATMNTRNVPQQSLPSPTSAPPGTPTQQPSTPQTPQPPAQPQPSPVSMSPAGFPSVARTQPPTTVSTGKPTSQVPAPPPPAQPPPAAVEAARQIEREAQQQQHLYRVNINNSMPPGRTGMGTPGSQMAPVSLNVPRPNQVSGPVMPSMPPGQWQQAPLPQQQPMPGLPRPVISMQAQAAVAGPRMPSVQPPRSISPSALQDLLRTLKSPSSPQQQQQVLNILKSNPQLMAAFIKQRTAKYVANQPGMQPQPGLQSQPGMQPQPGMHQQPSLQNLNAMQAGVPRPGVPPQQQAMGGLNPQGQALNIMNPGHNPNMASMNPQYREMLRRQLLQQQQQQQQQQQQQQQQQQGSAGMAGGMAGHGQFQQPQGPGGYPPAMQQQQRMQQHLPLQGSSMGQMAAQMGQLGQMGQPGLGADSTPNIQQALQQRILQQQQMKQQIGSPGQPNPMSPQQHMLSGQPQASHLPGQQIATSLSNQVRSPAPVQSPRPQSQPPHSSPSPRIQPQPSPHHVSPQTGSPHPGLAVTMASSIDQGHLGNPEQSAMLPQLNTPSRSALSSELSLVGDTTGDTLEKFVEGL
UniProt Q92830: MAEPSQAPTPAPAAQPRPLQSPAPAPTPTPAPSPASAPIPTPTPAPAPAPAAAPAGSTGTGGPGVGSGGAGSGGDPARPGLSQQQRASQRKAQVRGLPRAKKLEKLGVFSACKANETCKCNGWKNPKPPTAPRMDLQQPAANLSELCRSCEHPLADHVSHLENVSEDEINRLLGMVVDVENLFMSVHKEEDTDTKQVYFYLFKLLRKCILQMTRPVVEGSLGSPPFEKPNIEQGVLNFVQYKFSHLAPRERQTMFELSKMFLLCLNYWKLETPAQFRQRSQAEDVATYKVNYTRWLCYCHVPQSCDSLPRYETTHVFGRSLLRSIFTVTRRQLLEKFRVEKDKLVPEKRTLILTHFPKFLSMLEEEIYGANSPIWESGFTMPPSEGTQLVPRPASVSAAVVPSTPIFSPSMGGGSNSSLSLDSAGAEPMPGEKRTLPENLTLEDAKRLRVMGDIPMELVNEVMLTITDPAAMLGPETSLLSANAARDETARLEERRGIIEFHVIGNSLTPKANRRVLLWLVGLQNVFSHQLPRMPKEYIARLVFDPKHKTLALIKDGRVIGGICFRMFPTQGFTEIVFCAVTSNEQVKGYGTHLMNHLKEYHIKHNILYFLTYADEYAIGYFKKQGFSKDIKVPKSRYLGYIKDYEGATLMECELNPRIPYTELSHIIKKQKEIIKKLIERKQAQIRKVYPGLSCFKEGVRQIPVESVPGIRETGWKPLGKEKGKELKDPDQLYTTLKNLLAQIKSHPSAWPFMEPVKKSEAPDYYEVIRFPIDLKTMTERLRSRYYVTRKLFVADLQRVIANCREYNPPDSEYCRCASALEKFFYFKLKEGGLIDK
UniProt Q92831: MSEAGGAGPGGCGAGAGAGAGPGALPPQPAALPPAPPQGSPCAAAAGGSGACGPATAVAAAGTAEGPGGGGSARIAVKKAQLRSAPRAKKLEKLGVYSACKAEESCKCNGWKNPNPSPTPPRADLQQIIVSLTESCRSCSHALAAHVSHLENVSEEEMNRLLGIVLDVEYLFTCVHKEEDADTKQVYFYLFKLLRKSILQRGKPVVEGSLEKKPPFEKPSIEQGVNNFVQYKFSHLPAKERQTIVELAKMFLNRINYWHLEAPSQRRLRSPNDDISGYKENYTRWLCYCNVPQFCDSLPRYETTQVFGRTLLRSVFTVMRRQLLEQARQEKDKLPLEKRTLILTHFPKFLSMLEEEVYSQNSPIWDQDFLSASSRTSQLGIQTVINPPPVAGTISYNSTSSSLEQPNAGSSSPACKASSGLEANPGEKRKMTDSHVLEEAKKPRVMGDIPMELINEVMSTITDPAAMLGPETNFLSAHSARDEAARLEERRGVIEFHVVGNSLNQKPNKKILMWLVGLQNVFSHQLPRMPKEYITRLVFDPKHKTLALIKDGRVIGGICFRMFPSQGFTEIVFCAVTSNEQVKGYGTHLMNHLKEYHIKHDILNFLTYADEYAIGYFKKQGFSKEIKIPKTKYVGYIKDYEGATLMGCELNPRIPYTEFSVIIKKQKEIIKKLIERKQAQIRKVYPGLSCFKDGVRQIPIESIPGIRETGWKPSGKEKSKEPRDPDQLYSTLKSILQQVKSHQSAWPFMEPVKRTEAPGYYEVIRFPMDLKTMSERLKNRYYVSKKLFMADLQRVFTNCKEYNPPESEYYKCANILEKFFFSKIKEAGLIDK
UniProt Q92993: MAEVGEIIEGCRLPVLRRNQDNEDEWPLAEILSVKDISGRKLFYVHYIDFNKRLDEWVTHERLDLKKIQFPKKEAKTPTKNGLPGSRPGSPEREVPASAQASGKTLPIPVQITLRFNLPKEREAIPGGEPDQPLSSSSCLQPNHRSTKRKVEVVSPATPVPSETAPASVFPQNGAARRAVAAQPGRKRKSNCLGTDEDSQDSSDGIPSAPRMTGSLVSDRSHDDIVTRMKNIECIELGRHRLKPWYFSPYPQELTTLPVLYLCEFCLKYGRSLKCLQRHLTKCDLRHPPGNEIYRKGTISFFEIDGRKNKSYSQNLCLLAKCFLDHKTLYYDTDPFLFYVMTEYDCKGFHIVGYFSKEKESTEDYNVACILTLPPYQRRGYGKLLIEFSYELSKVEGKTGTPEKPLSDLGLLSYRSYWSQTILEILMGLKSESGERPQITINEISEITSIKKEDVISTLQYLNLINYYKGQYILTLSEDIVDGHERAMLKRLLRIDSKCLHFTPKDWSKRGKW

T1: endogenous DACH1 (human (endogenous in RKO, HCT8, SW480)) (UniProt Q9UI36)
T1 sequence: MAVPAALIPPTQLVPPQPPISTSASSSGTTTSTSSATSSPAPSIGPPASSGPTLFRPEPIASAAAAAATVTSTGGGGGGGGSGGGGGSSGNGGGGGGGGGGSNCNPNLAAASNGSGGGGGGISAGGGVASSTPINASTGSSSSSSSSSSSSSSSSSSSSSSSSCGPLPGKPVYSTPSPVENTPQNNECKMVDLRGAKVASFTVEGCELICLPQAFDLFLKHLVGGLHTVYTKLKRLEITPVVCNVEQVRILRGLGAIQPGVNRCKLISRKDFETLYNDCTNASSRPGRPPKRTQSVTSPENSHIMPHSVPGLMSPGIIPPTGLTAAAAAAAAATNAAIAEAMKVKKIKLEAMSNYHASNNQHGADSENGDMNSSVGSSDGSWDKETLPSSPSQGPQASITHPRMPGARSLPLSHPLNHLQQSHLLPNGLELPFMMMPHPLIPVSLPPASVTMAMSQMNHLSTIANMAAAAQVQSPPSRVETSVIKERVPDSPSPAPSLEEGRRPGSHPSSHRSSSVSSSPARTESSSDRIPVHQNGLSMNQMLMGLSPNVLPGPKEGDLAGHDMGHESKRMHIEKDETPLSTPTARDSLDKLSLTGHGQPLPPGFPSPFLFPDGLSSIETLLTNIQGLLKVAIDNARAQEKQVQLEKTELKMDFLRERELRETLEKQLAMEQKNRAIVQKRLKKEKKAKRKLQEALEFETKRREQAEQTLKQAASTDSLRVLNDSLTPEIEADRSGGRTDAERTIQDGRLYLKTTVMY


Experiments:
HA-USP7-FL = HA-USP7-FL (UniProt Q93009); experiment: co-IP; HA-USP7 and Myc-DACH1 (or its K680 mutants) expressed in HEK293T cells (Fig. 6J: HEK293T and SW480 stably expressing HA-USP7); IP with anti-HA or anti-Myc, immunoblot
Flag-CBP = Flag-CBP (UniProt Q92793); experiment: co-IP; Myc-DACH1 co-expressed with Flag-tagged p300, GCN5, PCAF, CBP or Tip60 in HEK293T cells; IP with anti-Flag antibodies, immunoblot for Myc and Flag
Flag-GCN5 = Flag-GCN5 (UniProt Q92830); experiment: as above
Flag-PCAF = Flag-PCAF (UniProt Q92831); experiment: as above
Flag-p300 = Flag-p300 (UniProt Q09472); experiment: as above
Flag-Tip60 = Flag-Tip60 (UniProt Q92993); experiment: as above
[1] = biological target: T1, endogenous DACH1 (human (endogenous in RKO, HCT8, SW480)); experiment: co-IP; endogenous proteins; RKO, HCT8 and SW480 cells immunoprecipitated with anti-DACH1 or anti-UHRF1

Binder	binding (HA-USP7-FL)	binding (Flag-CBP)	binding (Flag-GCN5)	binding (Flag-PCAF)	binding (Flag-p300)	binding (Flag-Tip60)	binding [1]
Myc-DACH1-FL (protein, UniProt Q9UI36 1-758) MAVPAALIPPTQLVPPQPPISTSASSSGTTTSTSSATSSPAPSIGPPASSGPTLFRPEPIASAAAAAATVTSTGGGGGGGGSGGGGGSSGNGGGGGGGGGGSNCNPNLAAASNGSGGGGGGISAGGGVASSTPINASTGSSSSSSSSSSSSSSSSSSSSSSSSCGPLPGKPVYSTPSPVENTPQNNECKMVDLRGAKVASFTVEGCELICLPQAFDLFLKHLVGGLHTVYTKLKRLEITPVVCNVEQVRILRGLGAIQPGVNRCKLISRKDFETLYNDCTNASSRPGRPPKRTQSVTSPENSHIMPHSVPGLMSPGIIPPTGLTAAAAAAAAATNAAIAEAMKVKKIKLEAMSNYHASNNQHGADSENGDMNSSVGSSDGSWDKETLPSSPSQGPQASITHPRMPGARSLPLSHPLNHLQQSHLLPNGLELPFMMMPHPLIPVSLPPASVTMAMSQMNHLSTIANMAAAAQVQSPPSRVETSVIKERVPDSPSPAPSLEEGRRPGSHPSSHRSSSVSSSPARTESSSDRIPVHQNGLSMNQMLMGLSPNVLPGPKEGDLAGHDMGHESKRMHIEKDETPLSTPTARDSLDKLSLTGHGQPLPPGFPSPFLFPDGLSSIETLLTNIQGLLKVAIDNARAQEKQVQLEKTELKMDFLRERELRETLEKQLAMEQKNRAIVQKRLKKEKKAKRKLQEALEFETKRREQAEQTLKQAASTDSLRVLNDSLTPEIEADRSGGRTDAERTIQDGRLYLKTTVMY	binds	no binding	binds	no binding	no binding	no binding	–
E3 ubiquitin-protein ligase UHRF1 (endogenous) (enzyme, UniProt Q96T88 1-793) MWIQVRTMDGRQTHTVDSLSRLTKVEELRRKIQELFHVEPGLQRLFYRGKQMEDGHTLFDYEVRLNDTIQLLVRQSLVLPHSTKERDSELSDTDSGCCLGQSESDKSSTHGEAAAETDSRPADEDMWDETELGLYKVNEYVDARDTNMGAWFEAQVVRVTRKAPSRDEPCSSTSRPALEEDVIYHVKYDDYPENGVVQMNSRDVRARARTIIKWQDLEVGQVVMLNYNPDNPKERGFWYDAEISRKRETRTARELYANVVLGDDSLNDCRIIFVDEVFKIERPGEGSPMVDNPMRRKSGPSCKHCKDDVNRLCRVCACHLCGGRQDPDKQLMCDECDMAFHIYCLDPPLSSVPSEDEWYCPECRNDASEVVLAGERLRESKKKAKMASATSSSQRDWGKGMACVGRTKECTIVPSNHYGPIPGIPVGTMWRFRVQVSESGVHRPHVAGIHGRSNDGAYSLVLAGGYEDDVDHGNFFTYTGSGGRDLSGNKRTAEQSCDQKLTNTNRALALNCFAPINDQEGAEAKDWRSGKPVRVVRNVKGGKNSKYAPAEGNRYDGIYKVVKYWPEKGKSGFLVWRYLLRRDDDEPGPWTKEGKDRIKKLGLTMQYPEGYLEALANREREKENSKREEEEQQEGGFASPRTGKGKWKRKSAGGGPSRAGSPRRTSKKTKVEPYSLTAQQSSLIREDKSNAKLWNEVLASLKDRPASGSPFQLFLSKVEETFQCICCQELVFRPITTVCQHNVCKDCLDRSFRAQVFSCPACRYDLGRSYAMQVNQPLQTVLNQLFPGYGNGR	–	–	–	–	–	–	binds
Myc-DACH1-K680Q (protein, UniProt Q9UI36 1-758) MAVPAALIPPTQLVPPQPPISTSASSSGTTTSTSSATSSPAPSIGPPASSGPTLFRPEPIASAAAAAATVTSTGGGGGGGGSGGGGGSSGNGGGGGGGGGGSNCNPNLAAASNGSGGGGGGISAGGGVASSTPINASTGSSSSSSSSSSSSSSSSSSSSSSSSCGPLPGKPVYSTPSPVENTPQNNECKMVDLRGAKVASFTVEGCELICLPQAFDLFLKHLVGGLHTVYTKLKRLEITPVVCNVEQVRILRGLGAIQPGVNRCKLISRKDFETLYNDCTNASSRPGRPPKRTQSVTSPENSHIMPHSVPGLMSPGIIPPTGLTAAAAAAAAATNAAIAEAMKVKKIKLEAMSNYHASNNQHGADSENGDMNSSVGSSDGSWDKETLPSSPSQGPQASITHPRMPGARSLPLSHPLNHLQQSHLLPNGLELPFMMMPHPLIPVSLPPASVTMAMSQMNHLSTIANMAAAAQVQSPPSRVETSVIKERVPDSPSPAPSLEEGRRPGSHPSSHRSSSVSSSPARTESSSDRIPVHQNGLSMNQMLMGLSPNVLPGPKEGDLAGHDMGHESKRMHIEKDETPLSTPTARDSLDKLSLTGHGQPLPPGFPSPFLFPDGLSSIETLLTNIQGLLKVAIDNARAQEKQVQLEKTELKMDFLRERELRETLEKQLAMEQKNRAIVQQRLKKEKKAKRKLQEALEFETKRREQAEQTLKQAASTDSLRVLNDSLTPEIEADRSGGRTDAERTIQDGRLYLKTTVMY	binds	–	–	–	–	–	–
